Results on 14 molecules are retold here after PMC12136788.

First the molecules themselves.
B1: 154691501_154692426_2298_CDS_ENSMUSG00000042772_ENSMUST00000043560|mouse|control|control (ssRNA)
RNA: GGGAGUUCUACAGUCCGACGAUCAUUCCACAGCUGUUUGGAGGCAUCUGCCUGUUGAUACUGCUGGAAUCCAGAGUGGUGAGGCGGGCUUUUCCCCAAAGCUGGUAUGACUUUUGUAGGGGAUUGCUGUUGCUGAGCUAGAGCCAACAGAGGAUUGAGCAUCA
B2: chr3:49759264:49759265:-_ENSG00000173540_ENST00000308388|hu_hu|FALSE|FALSE (ssRNA)
RNA: GGGAGUUCUACAGUCCGACGAUCGCCAAUAGACUUGUGGGGCAGCACGCUGGCUCCGUUGAGGUAGAGCUCAUCAUUAACUAUGACGUCCUCACCCAGCACUGUCACGUUCUCCAUGCGUACCCACUGACCCACGCGGCAGCGCAACAGAGGAUUGAGCAUCA
B3: chr6:91066717:91066718:-_ENSMUSG00000030091_ENSMUST00000032179|mus_hu|FALSE|FALSE (ssRNA)
RNA: GGGAGUUCUACAGUCCGACGAUCCGCAGCGGCGGAGGGGCCCGCCGCCAACAGCACCGACAGCGUCAGCAGCAGCAGCCCCCGGCCCCGCGCCGCCAUCCUCGCCGCGCGUCACCUCCCGCGACCCUGCGCCCGGCCGCCCGCCAACAGAGGAUUGAGCAUCA
B4: chr2:114714976:114714977:+_ENSG00000115091_ENST00000536059|hu_hu|FALSE|FALSE (ssRNA)
RNA: GGGAGUUCUACAGUCCGACGAUCAUAACUAUGAAGCCAAUUUUACGACAUGACUCCAAACACUGGAUUGUGACGACAAAUGCUAGGUCCAAUUUCUUCAUAAUCCUUUUUGGUGUGGCAUACUUGGUAGAACUCAGGCGUGGACAACAGAGGAUUGAGCAUCA
B5: chr8:108054885:108054886:-_ENSMUSG00000013160_ENSMUST00000013304|mus_mus|motif|central (ssRNA)
RNA: GGGAGUUCUACAGUCCGACGAUCUGAACGCUGGUGCAGUGUGCCUGUGAUUAGCAGGAUCACGUUGUCAAUCAUGUAGCGGUAAGUUAUGAAGUCCAGGAAGCUGGCGAGCGGCUCAUAAGCAUGGUUUCUCAUGUGGCGGAACAACAGAGGAUUGAGCAUCA
B6: chr11:33163239:33163240:-_ENSG00000176102_ENST00000323959|hu_mus|FALSE|FALSE (ssRNA)
RNA: GGGAGUUCUACAGUCCGACGAUCUCUGCCAGAACUGGGGAACUGGGCAACAAGGCGUUCGUAAGUCUUCCGUGCUUUGUCUAUAGGUUGAUUCUGUGCCUCUCGAAUGAGAAUGCUCCAAGCAUCAAGGUCAUAUGGAUUUUCCAACAGAGGAUUGAGCAUCA
B7: chr5:34944098:34944099:+_ENSMUSG00000029106_ENSMUST00000114338|mus_mus|FALSE|FALSE (ssRNA)
RNA: GGGAGUUCUACAGUCCGACGAUCCUGCUCCAUCAUAUUGAAGUCCUGACGAAGGUCUGGUGCCAUGUUCCUCUCCCGCAAAUAUUCUGGGUUGUUCUCAUCGACUCUGUCAAAAUACCUCUCCUUGUGAGGGGCUGUGGUUGGCAACAGAGGAUUGAGCAUCA
B8: chr17:2569311:2569312:+_ENSG00000007168_ENST00000397195|hu_hu|motif|central (ssRNA)
RNA: GGGAGUUCUACAGUCCGACGAUCUGUCCAUUUUUUUUCCAAAAGACCAGCAUACUUUUUAUCUAAUUCUUCAUUCACAUCGGAUUCAGCUUCCUUUUUAAAAACUGAAUAUGCCUCUUCAUAGCCAUUUGAACGAAGAUAAUCCAACAGAGGAUUGAGCAUCA
B9: chr11:100882373:100882374:+_ENSMUSG00000019302_ENSMUST00000044721|mus_hu|FALSE|FALSE (ssRNA)
RNA: GGGAGUUCUACAGUCCGACGAUCUUCCUGGUUUGUGUUGAUUUCCUUCAGUUCAUUUUCAAUCUUCUCAAAAUUGGCCUCUAAGUCAAUCAUGUCCCGGGGGAAGGGAACCUCUGGGUUUUCACCGGUGUCCAUAAUCGGAAUCAACAGAGGAUUGAGCAUCA
B10: chr12:48528548:48528549:+_ENSG00000152556_ENST00000359794|hu_mus|FALSE|FALSE (ssRNA)
RNA: GGGAGUUCUACAGUCCGACGAUCGAGCCGGCGACAAAGGUGUUCUUCCCAGUCAUCGUCUGGCGGACACUCAGGAAUAAAAACCCAGUCGGCCCCACAGGACAGAGAGGUGACAAGGGCCAGGUAUCCACAGUGGCGGCCCAUCAACAGAGGAUUGAGCAUCA
B11: 70739411_70748023_2279_CDS_ENSMUSG00000020817_ENSMUST00000076270|mouse|control|control (ssRNA)
RNA: GGGAGUUCUACAGUCCGACGAUCUUGAAUUUGCUCUUUUAGGAAAAGUAUUUCCGCCUUCAGCUUCUCUUCCAUGUGGUCUGCUGCUGUGCGCACAUGAACAAUGUUCUCACGAUAUUUUAAAACCAGUUCCCGGAGCACCUCCAACAGAGGAUUGAGCAUCA
B12: chr7:7679991:7679992:-_ENSG00000106399_ENST00000396682|hu_hu|hu_hu_hu_mus_False|18_18 (ssRNA)
RNA: GGGAGUUCUACAGUCCGACGAUCUGGGAUGAAUCUUUUCCAGCUUCCCCACGAAGCACACGGGCCGGUCGAUAUACUGUGGUAACAUGCUGGCGUUGACGCGCGCUUUGGGGAGCUCCAUCAUGUCCUCCAUGAUUCUGCCGCCAACAGAGGAUUGAGCAUCA
B13: chrX:117107323:117107324:-_ENSG00000003096_ENST00000371878|hu_hu|motif|central (ssRNA)
RNA: GGGAGUUCUACAGUCCGACGAUCUUUGAGCUGCAACAAUACAAAUGGGAUAUAAACCUCAGCAUAGCCUUAGGCGGCCGCGGAUAGAGAUCAGUGACUAAAUUCAGCAGCCUGCUUUCCUCCUGUGCAAGCUCUGGCCACACACAACAGAGGAUUGAGCAUCA
B14: 25675406_25677447_891_CDS_ENSG00000077097_ENST00000264331|human|control|control (ssRNA)
RNA: GGGAGUUCUACAGUCCGACGAUCUCUUUCAUUUGCAAGCUCAUGAAUAACUUUCAGGGCCACCCCAGUUUCAUCCAAUUUGUCUUUCACAUAAAGAUCUACAUAACUGCGAAAUCCAUUUACAGGCAAUUUCUUUCCAUUAAACAACAGAGGAUUGAGCAUCA

Some of the results follow.

This assay addresses T1, UNK ZnF1-3 (human, UniProt Q9C0B0 31-174).
T1 sequence: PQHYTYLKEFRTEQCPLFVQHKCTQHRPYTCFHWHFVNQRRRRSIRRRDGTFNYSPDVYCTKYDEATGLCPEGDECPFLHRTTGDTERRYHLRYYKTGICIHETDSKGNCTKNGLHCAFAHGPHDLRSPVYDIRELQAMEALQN
As to the kind of experiment: nsRBNS (natural sequence RNA bind-n-seq); RBNS binding buffer (assumed for nsRBNS): 25 mM Tris pH 7.5, 150 mM KCl, 3 mM MgCl2, 0.01% Triton X-100, 500 ug/ml BSA, 20 U/ml SUPERase-In, 4 C; UNK is unkempt and MSI1 is Musashi-1; names of the RNAs are library labels; protein concentration not given here; high values mean tight binding.
The molecule B1 yielded a binding signal of 0.609 enrichment R. As to B2, the binding signal is 0.952 enrichment R. Regarding B3, the binding signal is 1.67 enrichment R. To B4 belongs 1.21 enrichment R. As to B5, the binding signal came out at 0.944 enrichment R. To B6 belongs 0.474 enrichment R; to B7, 0.901 enrichment R. On to B8, for which the binding signal came out at 0.715 enrichment R.

Molecule B9 came in with a binding signal of 0.568 enrichment R.

In the case of B10, the binding signal was 0.781 enrichment R.

As to B11, the binding signal was 0.799 enrichment R. B12 displayed a binding signal of 0.785 enrichment R. For B13, the binding signal amounted to 1.34 enrichment R. For the molecule B14, the binding signal came to 0.94 enrichment R.
